Measurements from article PMC6104132.
No constants are given. Whether binding was seen depends on the method and setting. In cells and extracts the contact can be indirect. Some results given as binding are weak or reduced against the parent protein; the word gives no strength. Sequences can lack the tags named with a protein.

Sequences of proteins named here, by UniProt entry; tags and fusion partners are left off. A line that says so, or that is headed by a name, gives the form on record, which may keep a tag or linker. Residues count along the entry.
UniProt Q9PID1, residues 27-201: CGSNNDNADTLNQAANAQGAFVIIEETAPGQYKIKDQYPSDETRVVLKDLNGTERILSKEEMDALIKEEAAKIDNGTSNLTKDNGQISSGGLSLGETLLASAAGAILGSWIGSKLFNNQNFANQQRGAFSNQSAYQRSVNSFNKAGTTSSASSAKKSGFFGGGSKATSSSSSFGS
His-tagged Cj1564 (residues 42-290 of Cj1564) (Q0P864, residues 42-290): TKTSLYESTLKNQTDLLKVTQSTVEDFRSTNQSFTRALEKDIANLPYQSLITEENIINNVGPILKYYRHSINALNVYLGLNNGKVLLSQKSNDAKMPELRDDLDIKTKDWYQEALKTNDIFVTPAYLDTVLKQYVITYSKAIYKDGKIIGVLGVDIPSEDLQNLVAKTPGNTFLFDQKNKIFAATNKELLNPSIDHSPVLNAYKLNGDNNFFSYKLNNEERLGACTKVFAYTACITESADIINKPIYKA
His-tagged Cj6462 (residues 317-662 of Cj1564) (Q0P864, residues 317-662): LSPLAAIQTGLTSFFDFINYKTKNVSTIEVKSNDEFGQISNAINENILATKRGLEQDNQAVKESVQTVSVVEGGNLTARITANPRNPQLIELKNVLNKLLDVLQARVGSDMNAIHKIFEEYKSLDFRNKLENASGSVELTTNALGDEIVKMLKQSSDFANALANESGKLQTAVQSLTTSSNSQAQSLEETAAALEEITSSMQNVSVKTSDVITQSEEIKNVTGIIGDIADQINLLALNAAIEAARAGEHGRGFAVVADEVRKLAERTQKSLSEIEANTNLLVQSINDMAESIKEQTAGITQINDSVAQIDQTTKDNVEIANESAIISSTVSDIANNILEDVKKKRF
UniProt Q0P9E4: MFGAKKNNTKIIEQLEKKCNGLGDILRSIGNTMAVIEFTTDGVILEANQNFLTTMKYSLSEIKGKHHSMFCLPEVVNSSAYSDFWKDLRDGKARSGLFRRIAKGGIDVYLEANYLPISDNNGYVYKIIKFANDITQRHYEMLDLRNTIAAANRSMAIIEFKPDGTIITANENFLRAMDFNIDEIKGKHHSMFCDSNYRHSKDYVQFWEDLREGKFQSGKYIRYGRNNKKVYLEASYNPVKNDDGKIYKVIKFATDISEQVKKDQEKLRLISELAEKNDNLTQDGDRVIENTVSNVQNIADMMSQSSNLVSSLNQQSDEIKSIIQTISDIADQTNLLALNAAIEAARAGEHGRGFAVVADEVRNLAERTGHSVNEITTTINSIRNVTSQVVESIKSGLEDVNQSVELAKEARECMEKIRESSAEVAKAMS
UniProt P0C635: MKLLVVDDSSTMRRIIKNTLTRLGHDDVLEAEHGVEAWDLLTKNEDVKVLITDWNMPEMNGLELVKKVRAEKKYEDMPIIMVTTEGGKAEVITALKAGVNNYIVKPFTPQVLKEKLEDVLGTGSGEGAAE

B1: His-tagged CheV (protein, UniProt Q0PBM1 1-318)
chain: MFDENIVKTGSNEMELVDFRIFKQGHDKVYEGIYGVNVSKVREIIKIPSLTELPGVPDYIEGIFDLRGVVIPVVNLAKWMQITEPESTMLKPRVIITEFSNILIGFIVHEAKRIRRINWKDIEPATFSTGSGALDKGKITGVTRIENDEVLLILDLESVVEDLGIYAPKTDIDFGKIEKFTGTALILDDSMTARKRVKEMMQQMGFQVVEAKDGVEGINKLEELSQIYGESLNDTLKIIVSDVEMPQMDGFHFAARIKEDPRFKDIPIVFNSSLSNEFMNEKGVQEAGGEGYLVKFNASDFFNEIAKVIKKHQSQEQG
B2: His-tagged CheA (protein, UniProt Q0PBM2 1-769)
chain: MEDMQEILEDFLVEAFELVEQIDHDLVELESNPEDLELLNRIFRVAHTVKGSSSFLNFDVLTKLTHHMEDVLNKARHGELKITPDIMDVVLESIDRMKTLLNSIRDNGNDTAIGMDIEPICARLTAISEGESPVVATDSNEKSIPQAELEAPKQEIATPEPEVDVNQLSDSEVEAEIERLLKVRKAEDQARRAQKKQTTNAAPKPTNNTANKPTESGEKKVPASGSNASSMDQTIRVEVKRLDHLMNLIGELVLGKNRLLKIYDDVEERYEGEKFLEELNQVVSQLSIIITDVQLAVMKTRMQPIAKVFNKFPRVVRDLSRELGKQIELEITGEETELDKSIVEEIGDPIMHMIRNSCDHGVEDPATRAANGKPEKGIVQLKAYNEGNHIVVEITDDGKGLDPNGLKAKAIEKNLITEREADQMTDKEAFALIFKPGFSTAAKVTNVSGRGVGMDVVKTNIEKLNGVIEIDSELGKGSSFKLKIPLTLAIIQSLLVGTQEEFYAIPLASVLETVRVPIDDIYTIEGKNVLRLRDEVLSLVRLSDVFGVKQVLESGDQTYVVVIGVAESKLGIIVDTLVGQEEIVIKSMGDYLQNIQGIAGATIRGDGRVTLIIDVGAMMDMAKEIKVDIKAQLESSAKKPKEQPSDYKVLIVDDSKMDRTLMQKALEPLGVSLIEATNGVEALNIIKSGEHDIDAMLIDIEMPRMDGYTLAGEIRKYSKYRNLPLIAVTSRTSKTDRLRGVEVGMTEYITKPYSPEYLENVVRKNLKLG

Molecular target: GST-Cj0371 (C. jejuni NCTC11168) (UniProt Q9PID1)
Assay: pull-down

| Molecule | binding |
| --- | --- |
| His-tagged Cj6462 (residues 317-662 of Cj1564) (from UniProt Q0P864 317-662) (domain or fragment) | no binding |
| His-tagged Cj1110c (from UniProt Q0P9E4 1-429) | no binding |
| His-tagged Cj1564 (residues 42-290 of Cj1564) (from UniProt Q0P864 42-290) (domain or fragment) | no binding |
| His-tagged CheY (from UniProt P0C635 1-130) | no binding |
| B1 | binds |
| B2 | no binding |
